# Results from PubChem BioAssay (Tox21).
# “And” between values parts separate entries of the source, which are not always exact repeats. Equal entries are not always repeated. Inconclusive means that the source gave no clear call. Such entries were picked first, then a sample of the others. For some of these results: A potency beside an inconclusive call is a rough fit, not a confirmed value. The source made the active and inactive calls. Unless noted, calls follow the shape of the dose curve; as a rule, active = well fitted curve in the direction sought with a large enough effect in the repeat runs; inconclusive = weak or mixed curves; inactive = no such curve, though single readings can be large; an effect the other way counts as inactive or inconclusive.
# How the values were obtained:
# [1] = biological target: Luciferin 4-monooxygenase (Photinus pyralis) (UniProt P08659); assay: qHTS assay to identify small molecule inhibitors of firefly luciferase (AID 1224835); also: nearly all actives have a fitted effect of over 25% in size
# Method in brief: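 Quantitative HTS format; KM concentrations of both substrates. Purified P. pyralis FLuc activity quantified from luminescence images.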
# [2] = qHTS assay to identify small molecule agonists of the constitutive androstane receptor (CAR) signaling pathway - cell viability counter screen (AID 1224836); also: nearly all actives have a fitted effect of over 45% in size
# Method in brief: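 HepG2 cells stably carrying hCAR and a CYP2B6-2.2kb reporter were plated 4 h, then given compounds at 15 concentrations plus PK11195 (final 0.75 uM). After 23 h at 37 C, viability was read by CellTiter-Fluor fluorescence.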
# [3] = qHTS assay to identify small molecule antagonists of the estrogen related receptor signaling pathway with the pleiotropic PPARgamma coactivator (PGC) from Tox21 10K library - cell viability counter screen (AID 1224840; active = well fitted cell-killing curve with a large enough effect in the repeat runs, not every such curve was filed as active; inconclusive = weak or mixed curves, or effect the other way; inactive = no such curve, though single readings can be large or run the other way; also: nearly all actives have a fitted effect of over 40% in size)
# Method in brief: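 Compounds in DMSO, alongside positive and negative controls, were pinned onto PGC/ERR cells (2,000 per well). Exposure lasted 17.5 hours at 37 C, followed by a 30-minute CellTiter-Fluor incubation and fluorescence reading.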
# [4] = qHTS assay to identify small molecule agonists of H2AX (AID 1224845; active = well fitted activation curve with a large enough effect in the signal ratio in the repeat runs, not every such curve was filed as active; inconclusive = weak or mixed curves; the % refers to the signal ratio); settings: CHO-K1 phospho-H2AX Ser139 HTRF, 3 h; activation (H2AX phosphorylation): at 154 µM (top of the series) unless noted
# Method in brief: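 Wild-type CHO-K1 cells plated overnight, then exposed 3 hr at 37C to compounds at 15 concentrations (0.76% DMSO). Lysed, then HTRF anti-pH2AX(S139)-cryptate/anti-H2AX-d2 detection after 24 hr at room temperature; emissions 665 and 620 nm.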
# [5] = qHTS assay to identify small molecule agonists of the hypoxia (HIF-1) signaling pathway (AID 1224846; active = well fitted activation curve with a large enough effect in the signal ratio in the repeat runs, not every such curve was filed as active; inconclusive = weak or mixed curves; the % refers to the signal ratio; as to activation: % is scaled to controls: 0 for no effect and ±100 for the full control effect); settings: HRE-bla ME-180 cells, beta-lactamase ratio, 17 h; activation: at 76.8 µM (top of the series) unless noted
# Method in brief: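 Measured by blue/green FRET after loading CCF4-AM: beta-lactamase expressed from a hypoxia response element in ME-180 cells. Test agents were delivered in DMSO and left 17 hrs; cells had been plated 5 hrs earlier in low-serum (0.5% dialyzed FBS) medium.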
# [6] = qHTS assay to identify small molecule agonists of H2AX - cell viability counter screen (AID 1224847; calls by dose curve; also: nearly all actives have a fitted effect of over 30% in size)
# Method in brief: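 Wild-type CHO-K1 cells (10% FBS medium) were plated overnight at 37C, exposed to compounds at 15 concentrations for 3 hr at 37C (0.76% DMSO final), and viability was read as CellTiter-Glo luminescence after 30 min at room temperature.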
# [7] = qHTS RealTime-Glo MT Cell Viability Assay in HEK293 cells - 32 hour (AID 1224868); also: nearly all actives have a fitted effect of over 50% in size
# Method in brief: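 Assay medium contained NanoLuc luciferase plus cell-permeant prosubstrate, added with HEK293 cells at 600 cells/well. After 5 h at 37 C/5% CO2 compounds were added; plates stayed at 37 C for 40 h with serial luminescence reads.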
# [8] = qHTS RealTime-Glo MT Cell Viability Assay in HepG2 cells - 24 hour (AID 1224867); also: nearly all actives have a fitted effect of over 50% in size
# Method in brief: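 qHTS, HepG2, 600 cells/well, RealTime-Glo (NanoLuc + prosubstrate) added with cells; 5 h preincubation; DMSO compound addition; 37 C; luminescence at 0/8/16/24/32/40 h.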
# [9] = qHTS assay to identify small molecule antagonists of the estrogen related receptor signaling pathway with the pleiotropic PPARgamma coactivator (PGC) from Tox21 10K library (AID 1224841; call rule not given here; also: actives are mostly falling curves and most rising ones were filed inactive; nearly all actives have a fitted effect of over 50% in size)
# Method in brief: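 Compound exposure ran 18 hours at 37 C in PGC/ERR cells (2,000/well) that had first rested 6 hours in a 37 C/5% CO2 incubator. Luciferase activity was then detected with One-Glo after a 30-minute room-temperature step.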
# [10] = biological target: Thyrotropin receptor (Homo sapiens) (UniProt P16473); assay: qHTS assay to identify small molecule agonists of the thyroid stimulating hormone receptor (TSHR) signaling pathway (AID 1224843; calls by dose curve; also: nearly all actives have a fitted effect of over 45% in size; as to activation: % is scaled to controls: 0 for no effect and ±100 for the full control effect); settings: TSHR-HEK293 cells, cAMP HTRF, agonist mode, 30 min; activation: at 92.4 µM (top of the series) unless noted
# Method in brief: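 Cell line HEK293 with TSHR; density 800/well. Exposure 30 min RT. Readout HTRF cAMP (cAMP-d2/anti-cAMP-cryptate), 1 h RT before reading.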
# [11] = qHTS assay to identify small molecule agonists of the hypoxia (HIF-1) signaling pathway - cell viability counter screen (AID 1224844; calls by dose curve; also: nearly all actives have a fitted effect of over 50% in size)
# Method in brief: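 Luminescent ATP content (CellTiter-Glo, 30 min, room temperature) served as the viability measure in HRE-bla ME-180 cells exposed to compounds for 17 hrs in low-serum medium (0.5% dialyzed FBS).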
# [12] = biological target: Nuclear receptor subfamily 1 group I member 3 (Homo sapiens) (UniProt Q14994); assay: qHTS assay to identify small molecule agonists of the constitutive androstane receptor (CAR) signaling pathway (AID 1224839); also: nearly all actives have a fitted effect of over 15% in size
# Method in brief: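 HepG2 cells stably expressing hCAR and a CYP2B6-2.2kb luciferase reporter were treated with compounds at 15 concentrations plus 0.75 uM PK11195 (final) for 24 h at 37 C; luminescence was read after ONE-Glo addition.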
# [13] = biological target: Nuclear receptor subfamily 1 group I member 3 (Homo sapiens) (UniProt Q14994); assay: qHTS assay to identify small molecule antagonists of the constitutive androstane receptor (CAR) signaling pathway (AID 1224838); also: nearly all actives have a fitted effect of over 40% in size
# Method in brief: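 Quantitative HTS in double-stable HepG2-CYP2B6-hCAR cells. After 4 h plating, cells get compound (15 concentrations) and CITCO at 50 nM final, incubate 24 h at 37 C, then ONE-Glo luminescence is read.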
# [14] = A CellTox Green Cytotoxicity Assay to monitor cytotoxicity in HEK293 cells - 0 hour (AID 1224869); also: nearly all actives have a fitted effect of over 50% in size
# Method in brief: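 Each value comes from one timepoint of a single continuous run in which HEK293 cells with CellTox Green were exposed to compound for up to 40 h at 37 C, dye fluorescence rising with cell death.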
# Potency is read from the fitted curve at half-maximal effect; tags tell the direction and shape of the fitted curve or compound fluorescence and quenching.
# Sequence of UniProt P16473 (P16473 whole entry, looked up): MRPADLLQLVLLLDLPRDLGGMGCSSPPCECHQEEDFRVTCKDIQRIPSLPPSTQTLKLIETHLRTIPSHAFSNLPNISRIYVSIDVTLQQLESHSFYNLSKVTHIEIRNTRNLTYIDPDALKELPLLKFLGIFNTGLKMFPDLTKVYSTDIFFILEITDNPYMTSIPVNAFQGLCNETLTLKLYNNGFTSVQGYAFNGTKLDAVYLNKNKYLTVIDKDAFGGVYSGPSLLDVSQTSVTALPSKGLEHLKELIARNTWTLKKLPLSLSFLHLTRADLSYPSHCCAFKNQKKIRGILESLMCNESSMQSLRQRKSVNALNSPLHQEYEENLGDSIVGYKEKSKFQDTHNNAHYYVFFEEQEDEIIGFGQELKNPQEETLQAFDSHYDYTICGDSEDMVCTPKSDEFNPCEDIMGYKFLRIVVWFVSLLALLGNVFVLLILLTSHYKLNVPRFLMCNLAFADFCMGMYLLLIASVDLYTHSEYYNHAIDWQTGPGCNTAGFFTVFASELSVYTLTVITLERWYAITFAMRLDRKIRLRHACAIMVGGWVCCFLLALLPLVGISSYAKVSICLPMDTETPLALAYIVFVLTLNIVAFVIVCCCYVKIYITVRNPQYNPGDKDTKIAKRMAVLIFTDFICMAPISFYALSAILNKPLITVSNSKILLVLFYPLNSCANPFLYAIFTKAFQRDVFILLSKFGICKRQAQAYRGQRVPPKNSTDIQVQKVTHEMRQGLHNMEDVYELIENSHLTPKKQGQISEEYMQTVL
# Sequence of UniProt Q14994 (Q14994 whole entry, looked up): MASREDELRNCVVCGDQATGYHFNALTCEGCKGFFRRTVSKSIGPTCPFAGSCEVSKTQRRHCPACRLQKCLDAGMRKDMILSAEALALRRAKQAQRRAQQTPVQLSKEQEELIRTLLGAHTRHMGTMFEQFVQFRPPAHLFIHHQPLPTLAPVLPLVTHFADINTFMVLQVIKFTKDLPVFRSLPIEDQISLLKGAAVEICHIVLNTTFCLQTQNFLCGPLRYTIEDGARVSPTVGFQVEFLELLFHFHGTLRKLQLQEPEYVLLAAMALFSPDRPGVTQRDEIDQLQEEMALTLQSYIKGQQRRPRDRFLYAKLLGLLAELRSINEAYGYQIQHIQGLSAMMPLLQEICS
# Sequence of UniProt P08659 (P08659 whole entry, looked up): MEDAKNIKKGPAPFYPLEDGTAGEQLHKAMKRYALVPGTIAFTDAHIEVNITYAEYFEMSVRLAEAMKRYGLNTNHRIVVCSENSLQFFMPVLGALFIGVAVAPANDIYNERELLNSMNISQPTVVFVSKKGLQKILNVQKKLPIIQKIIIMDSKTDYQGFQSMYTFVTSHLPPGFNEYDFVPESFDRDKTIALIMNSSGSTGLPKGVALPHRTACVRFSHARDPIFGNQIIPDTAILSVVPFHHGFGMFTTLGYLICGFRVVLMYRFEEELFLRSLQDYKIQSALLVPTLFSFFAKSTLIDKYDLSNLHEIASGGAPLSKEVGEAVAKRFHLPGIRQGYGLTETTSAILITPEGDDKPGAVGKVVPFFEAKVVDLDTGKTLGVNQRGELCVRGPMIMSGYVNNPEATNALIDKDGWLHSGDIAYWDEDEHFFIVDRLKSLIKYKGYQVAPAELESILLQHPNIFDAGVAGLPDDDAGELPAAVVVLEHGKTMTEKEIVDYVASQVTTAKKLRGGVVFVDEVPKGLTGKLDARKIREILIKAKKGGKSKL
smiles,measurement,setting,value
CC(=O)C1(C)CC2=C(CCCC2(C)C)CC1C (stereo not drawn),Potency,[1],inactive
CCOC(=O)COc1ccc(C)cc1,Potency,[1],active: 63.3 µM
CC(=O)Oc1ccccc1C(=O)Nc1ncc([N+](=O)[O-])s1,Potency,[1],active: 1.29 µM and active: 3.09 µM
same,Potency,[2],active: 19.7 µM and active: 21.1 µM
same,Potency,[3],active: 15.7 µM and active: 23.7 µM
same,Potency,[4],"inconclusive: 39.1 µM [falling, partial curve]"
same,Potency,[5],"inconclusive: 25.1 µM [falling, partial curve] and inconclusive: 15.1 µM [falling, partial curve]"
same,Potency,[6],active: 9.16 µM and active: 24.7 µM
same,Potency,[7],"inconclusive: 17.7 µM [cytotoxic, full curve] and inconclusive: 26.8 µM [cytotoxic, single point]"
O=C(c1ccc(F)cc1)C1CCN(CCn2c(=S)[nH]c3ccccc3c2=O)CC1,Potency,[1],inactive
same,Potency,[3],inconclusive: 29.8 µM [cytotoxic]
same,Potency,[4],"inconclusive: 55.2 µM [fluorescent, single point]"
same,Potency,[8],"inconclusive: 23.9 µM [falling, single point]"
O=C1C=CC(=O)N1,Potency,[1],active: 32.6 µM
same,Potency,[3],active: 44.4 µM
same,Potency,[9],"inconclusive: 79 µM [falling, partial curve, poor fit]"
same,Potency,[10],active: 7.04 µM
same,Potency,[11],active: 11.3 µM
same,Potency,[4],active: 14.6 µM
same,Potency,[5],"inconclusive: 12.6 µM [falling, full curve]"
same,Potency,[7],active: 12.6 µM
Cc1oc(C)c(C(=O)Nc2ccccc2)c1C,Potency,[1],"inconclusive: 56.4 µM [inhibitor, partial curve]"
same,Potency,[9],"inconclusive: 38.6 µM [falling, full curve, poor fit]"
same,Potency,[6],"inconclusive: 6.35 µM [cytotoxic, full curve]"
same,Potency,[7],active: 24.5 µM
c1ccc(CSCc2ccccc2)cc1,Potency,[1],"inconclusive: 39.8 µM [inhibitor, partial curve]"
same,Potency,[12],"inconclusive: 54.3 µM [activator, partial curve, poor fit]"
same,Potency,[5],inactive
CN1C(C(=O)Nc2ccccn2)=C(O)c2ccccc2S1(=O)=O,Potency,[1],"inconclusive: 40.3 µM [inhibitor, partial curve] and inconclusive: 21.9 µM [inhibitor, partial curve]"
same,Potency,[11],inactive
O=C1c2ccccc2C(=O)c2cc(S(=O)(=O)O)ccc21,Potency,[1],"inconclusive: 80 µM [inhibitor, single point]"
same,Potency,[13],inactive
same,Potency,[7],"inconclusive: 55.1 µM [rising, partial curve]"
c1cc2c3c(c1)ccc1cccc(c13)C2,Potency,[1],"inconclusive: 72.5 µM [inhibitor, partial curve]"
same,Potency,[12],"inconclusive: 49.6 µM [activator, partial curve]"
same,Potency,[10],inactive
same,Potency,[11],"inconclusive: 56.1 µM [cytotoxic, single point]"
same,Potency,[4],inconclusive: 103 µM [activator]
same,Potency,[5],"inconclusive: 63 µM [falling, single point]"
same,Potency,[6],"inconclusive: 115 µM [cytotoxic, single point]"
same,Potency,[7],"inconclusive: 56.1 µM [cytotoxic, single point]"
Nc1ccc(C(=O)Nc2ccccc2N)cc1,Potency,[1],"inconclusive: 30.9 µM [inhibitor, partial curve]"
same,Potency,[13],"inconclusive: 4.22 µM [inhibitor, full curve, poor fit]"
same,Potency,[11],active: 12 µM
same,Potency,[4],"inconclusive: 55.2 µM [falling, single point]"
same,Potency,[7],"inconclusive: 0.338 µM [rising, partial curve]"
CCN(CC)c1cccc(O)c1,Potency,[1],"inconclusive: 72.4 µM [inhibitor, partial curve, poor fit]"
same,Potency,[3],inactive
same,activation,[10],inconclusive: -32.1%
same,Potency,[4],"inconclusive: 103 µM [falling, partial curve]"
C#C[C@]1(O)CC[C@H]2[C@@H]3CCc4cc(O)ccc4[C@H]3CC[C@@]21C,Potency,[1],"inconclusive: 35.3 µM [inhibitor, single point] and inconclusive: 38.9 µM [inhibitor]"
same,Potency,[2],"inconclusive: 30.4 µM [cytotoxic, partial curve, poor fit]"
same,Potency,[3],"inconclusive: 34.1 µM [cytotoxic, partial curve] and inconclusive: 24.3 µM [cytotoxic] and inconclusive: 11.9 µM [cytotoxic, partial curve]"
same,Potency,[10],active: 13.6 µM and active: 21.7 µM and active: 8.41 µM
same,Potency,[11],"inconclusive: 26.8 µM [cytotoxic, partial curve]"
same,Potency,[6],"active: 100 µM and inconclusive: 80 µM [cytotoxic, partial curve] and active: 61.9 µM"
same,Potency,[7],"inconclusive: 12 µM [cytotoxic, partial curve]"
same,Potency,[14],"inconclusive: 0.0021 µM [activator, partial curve, poor fit]"
